66 cell lines from the supplement of paper PMC4967469 can be followed below.

Compound in this assay: COc1ncc(-c2ccc3nccc(-c4ccnnc4)c3c2)cc1NS(=O)(=O)c1ccc(F)cc1F [GSK2126458]
Description: Viability of human cancer cell lines after 72 h of drug (GDSC screen). The conditions noted are these: top dose inferred. The method, then: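 Human cancer cell lines in 384-well plates, medium with 10% serum, drug for 72 h over a 256-fold dose range (nine 2-fold or five 4-fold steps up to the top dose). Adherent lines were fixed and stained with the nucleic acid dye Syto60, suspension lines read with resazurin; signal relative to control wells, capped at 0 and 100%. One two-parameter sigmoid per drug and line, fitted in a mixed model over all curves with the slope shared within a line.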

The IC50 comes from the fitted curve, where viability falls to half of the control; where the fit passes the top or lowest dose, that dose stands as a limit. AUC sums up the same curve from the lowest dose to the 256-fold higher top dose; the more sensitive the line, the further below 1. A top dose marked as inferred was calculated from the reported fits.

The term IC50 denotes the point on the concentration scale where inhibition reaches its midpoint. As for “HO-1-N-1 (head and neck, adherent, top dose 0.128 µM)”, the AUC is 0.93 and the 50% inhibitory concentration (IC50) is over 128 nM.

As to “HO-1-u-1 (head and neck, adherent, top dose 0.128 µM)”, the AUC was 0.886 and the IC50 was over 128 nM.

On to “HOP-62 (lung adenocarcinoma, adherent, top dose 0.128 µM)”, for which the AUC turned out to be 0.854 and the half-inhibitory concentration (IC50) is 100 nM.

On to “HOP-92 (large cell lung carcinoma, adherent, top dose 0.128 µM)”, for which the AUC is 0.985 and the half-inhibitory concentration (IC50) is over 128 nM.

Take “HOS (osteosarcoma, adherent, top dose 0.128 µM)”: the AUC came out at 0.992 and the half-inhibitory concentration (IC50) is over 128 nM.

In the case of “HPAC (pancreas, adherent, top dose 0.128 µM)”, the AUC came out at 0.41 and the 50% inhibitory concentration (IC50) came out at 4.11 nM.

Regarding “HPAF-II (pancreas, adherent, top dose 0.128 µM)”, the AUC was found to be 0.505 and the half-inhibitory concentration (IC50) came out at 8.32 nM.

As for “HSC-2 (head and neck, adherent, top dose 0.128 µM)”, the AUC amounted to 0.833 and the IC50 came out at 73.9 nM.

As to “HSC-3 (head and neck, adherent, top dose 0.128 µM)”, the AUC was determined as 0.914 and the IC50 was over 128 nM.

Regarding “HSC-4 (head and neck, adherent, top dose 0.128 µM)”, the AUC came out at 0.746 and the IC50 is 52.4 nM.

Take “HSC-39 (stomach, suspension, top dose 0.128 µM)”: the AUC worked out at 0.802 and the IC50 stood at 52.8 nM.

Take “HT55 (large intestine, adherent, top dose 0.128 µM)”: the AUC was determined as 0.989 and the IC50 was over 128 nM.

In the case of “HT (B-cell lymphoma, suspension, top dose 0.128 µM)”, the AUC amounted to 0.557 and the IC50 stood at 11.3 nM.

As for “HT-3 (cervix, adherent, top dose 0.128 µM)”, the AUC amounted to 0.89 and the half-inhibitory concentration (IC50) was over 128 nM.

As to “HT-29 (large intestine, adherent, top dose 0.128 µM)”, the AUC was 0.585 and the IC50 worked out at 13.6 nM.

As to “HT-115 (large intestine, adherent, top dose 0.128 µM)”, the AUC was 0.969 and the IC50 is over 128 nM.

For the cell line “HT-144 (melanoma, adherent, top dose 0.128 µM)”, the AUC is 0.974 and the IC50 is over 128 nM.

“HT-1080 (fibrosarcoma, adherent, top dose 0.128 µM)”: the AUC was found to be 0.988 and the half-maximal inhibitory concentration (IC50) is over 128 nM.

“HT-1197 (bladder, adherent, top dose 0.128 µM)”: the AUC worked out at 0.903 and the IC50 is over 128 nM.

With “HT-1376 (bladder, adherent, top dose 0.128 µM)”, the AUC is 0.981 and the IC50 was over 128 nM.

On to “HTC-C3 (thyroid, adherent, top dose 0.128 µM)”, for which the AUC stood at 0.792 and the IC50 turned out to be 66.1 nM.

For the cell line “HUTU-80 (digestive system, adherent, top dose 0.128 µM)”, the AUC was determined as 0.395 and the 50% inhibitory concentration (IC50) was determined as 4.35 nM.

With “HeLa (cervix, adherent, top dose 0.128 µM)”, the AUC came to 0.916 and the IC50 is over 128 nM.

In the case of “Hep 3B2_1-7 (liver, adherent, top dose 0.128 µM)”, the AUC worked out at 0.898 and the IC50 was over 128 nM.

Turning to “Hey (ovary, adherent, top dose 0.128 µM)”, the AUC amounted to 0.864 and the concentration for half-maximal inhibition (IC50) worked out at 102 nM.

Regarding “Hs633T (fibrosarcoma, adherent, top dose 0.128 µM)”, the AUC turned out to be 0.758 and the concentration for half-maximal inhibition (IC50) came out at 37.1 nM.

On to “Hs683 (glioma, adherent, top dose 0.128 µM)”, for which the AUC is 0.65 and the half-inhibitory concentration (IC50) is 20.9 nM.

“Hs746T (stomach, adherent, top dose 0.128 µM)”: the AUC was 0.75 and the half-inhibitory concentration (IC50) came to 54.9 nM.

For the cell line “Hs766T (pancreas, adherent, top dose 0.128 µM)”, the AUC came to 0.892 and the IC50 is over 128 nM.

Turning to “Hs939-T (melanoma, adherent, top dose 0.128 µM)”, the AUC was found to be 0.926 and the IC50 was over 128 nM.

Regarding “Hs940-T (melanoma, adherent, top dose 0.128 µM)”, the AUC turned out to be 0.809 and the IC50 amounted to 84.7 nM.

On to “Hs-445 (Hodgkin lymphoma, suspension, top dose 0.128 µM)”, for which the AUC worked out at 0.429 and the IC50 came to 5.21 nM.

For the cell line “Hs-578-T (breast, adherent, top dose 0.128 µM)”, the AUC came to 0.986 and the IC50 is over 128 nM.

“HuCCT1 (biliary tract, adherent, top dose 0.128 µM)”: the AUC was 0.612 and the 50% inhibitory concentration (IC50) stood at 16.9 nM.

Take “HuH-7 (liver, adherent, top dose 0.128 µM)”: the AUC amounted to 0.892 and the IC50 is over 128 nM.

With “HuO9 (osteosarcoma, adherent, top dose 0.128 µM)”, the AUC came out at 0.637 and the IC50 worked out at 20 nM.

Take “HuO-3N1 (osteosarcoma, adherent, top dose 0.128 µM)”: the AUC amounted to 0.826 and the IC50 amounted to 113 nM.

Regarding “HuP-T3 (pancreas, adherent, top dose 0.128 µM)”, the AUC was 0.687 and the half-maximal inhibitory concentration (IC50) is 30.4 nM.

Consider “HuP-T4 (pancreas, adherent, top dose 0.128 µM)”, for which the AUC was 0.654 and the IC50 worked out at 22 nM.

For “IA-LM (large cell lung carcinoma, adherent, top dose 0.128 µM)”, the AUC came out at 0.784 and the IC50 is 61.5 nM.

For “IGR-1 (melanoma, adherent, top dose 0.128 µM)”, the AUC amounted to 0.85 and the IC50 was found to be 79.2 nM.

Turning to “IGR-37 (melanoma, adherent, top dose 0.128 µM)”, the AUC amounted to 0.827 and the half-inhibitory concentration (IC50) worked out at 69.3 nM.

Consider “IHH-4 (thyroid, semi-adherent, top dose 0.128 µM)”, for which the AUC was found to be 0.896 and the IC50 was 102 nM.

For “IM-95 (stomach, adherent, top dose 0.128 µM)”, the AUC came to 0.48 and the concentration for half-maximal inhibition (IC50) amounted to 7.02 nM.

In the case of “IMR-5 (neuroblastoma, adherent, top dose 0.128 µM)”, the AUC is 0.914 and the IC50 is over 128 nM.

On to “IPC-298 (melanoma, adherent, top dose 0.128 µM)”, for which the AUC turned out to be 0.75 and the IC50 was found to be 41.3 nM.

“IST-MEL1 (melanoma, adherent, top dose 0.128 µM)”: the AUC is 0.612 and the concentration for half-maximal inhibition (IC50) was determined as 17.3 nM.

With “IST-MES1 (mesothelioma, adherent, top dose 0.128 µM)”, the AUC was determined as 0.956 and the half-maximal inhibitory concentration (IC50) is over 128 nM.

On to “IST-SL1 (small cell lung carcinoma, semi-adherent, top dose 0.128 µM)”, for which the AUC is 0.831 and the IC50 was found to be 84.1 nM.

As to “IST-SL2 (small cell lung carcinoma, suspension, top dose 0.128 µM)”, the AUC came out at 0.62 and the IC50 came to 17 nM.

On to “J82 (bladder, adherent, top dose 0.128 µM)”, for which the AUC amounted to 0.885 and the IC50 was over 128 nM.

Take “JAR (urogenital system, adherent, top dose 0.128 µM)”: the AUC stood at 0.85 and the IC50 was 93.7 nM.

Consider “JEG-3 (urogenital system, adherent, top dose 0.128 µM)”, for which the AUC worked out at 0.989 and the 50% inhibitory concentration (IC50) was over 128 nM.

In the case of “JHH-1 (liver, adherent, top dose 0.128 µM)”, the AUC was determined as 0.377 and the IC50 turned out to be 3.56 nM.

“JHH-2 (liver, adherent, top dose 0.128 µM)”: the AUC turned out to be 0.737 and the half-maximal inhibitory concentration (IC50) was 40.3 nM.

As to “JHH-4 (liver, adherent, top dose 0.128 µM)”, the AUC came out at 0.944 and the IC50 was over 128 nM.

As for “JHH-6 (liver, adherent, top dose 0.128 µM)”, the AUC is 0.986 and the IC50 is over 128 nM.

Consider “JHH-7 (liver, adherent, top dose 0.128 µM)”, for which the AUC stood at 0.903 and the half-inhibitory concentration (IC50) is over 128 nM.

For “JHOS-2 (ovary, adherent, top dose 0.128 µM)”, the AUC stood at 0.944 and the 50% inhibitory concentration (IC50) was over 128 nM.

Turning to “JHOS-3 (ovary, adherent, top dose 0.128 µM)”, the AUC amounted to 0.808 and the concentration for half-maximal inhibition (IC50) amounted to 89.3 nM.

In the case of “JHU-011 (head and neck, adherent, top dose 0.128 µM)”, the AUC amounted to 0.646 and the IC50 was found to be 20.2 nM.

In the case of “JHU-022 (head and neck, adherent, top dose 0.128 µM)”, the AUC worked out at 0.751 and the IC50 amounted to 52.2 nM.

As for “JIMT-1 (breast, adherent, top dose 0.128 µM)”, the AUC worked out at 0.726 and the IC50 amounted to 37.3 nM.

For “JJN-3 (haematopoietic neoplasm, suspension, top dose 0.128 µM)”, the AUC is 0.63 and the concentration for half-maximal inhibition (IC50) came out at 17 nM.

As to “JM1 (B-cell lymphoma, suspension, top dose 0.128 µM)”, the AUC came out at 0.803 and the concentration for half-maximal inhibition (IC50) was determined as 53 nM.

Take “JSC-1 (B-cell lymphoma, suspension, top dose 0.128 µM)”: the AUC came to 0.665 and the IC50 amounted to 22.9 nM.
